Test results as given in PubChem BioAssay (Tox21).
This list was built around the results that the source calls inconclusive (neither active nor inactive); the mix of calls is not that of the screen. Potencies of inconclusive entries are doubtful fits and often do not repeat. Some structures have more than one record in an assay (separate samples or runs), and their calls can disagree. Activity calls are given as the source filed them. Unless noted, calls follow the shape of the dose curve; as a rule, active = well fitted curve in the direction sought with a large enough effect in the repeat runs; inconclusive = weak or mixed curves; inactive = no such curve, though single readings can be large; an effect the other way counts as inactive or inconclusive.

How the values were obtained:
[1] = qHTS assay for identifying genotoxic compounds that show differential cytotoxicity against isogenic chicken DT40 cell lines with known DNA damage response pathways - Rad54/Ku70 mutant cell line (AID 743015); details: DT40 Rad54/Ku70 mutant viability, CellTiter-Glo, 40 h; activity change, negative = cytotoxicity: at 66.8 µM (top of the series); also: nearly all actives have a fitted effect of over 60% in size; as to activity change, negative = cytotoxicity: % is scaled to controls: 0 for no effect and ±100 for the full control effect
[2] = qHTS assay for identifying genotoxic compounds that show differential cytotoxicity against isogenic chicken DT40 cell lines with known DNA damage response pathways - Rev3 mutant cell line (AID 743014); details: chicken DT40 Rev3-/- viability, CellTiter-Glo, 40 h; activity, negative = cytotoxicity: at 68.4 µM (top of the series); also: nearly all actives have a fitted effect of over 55% in size; as to activity, negative = cytotoxicity: % is scaled to controls: 0 for no effect and ±100 for the full control effect
[3] = qHTS assay to identify small molecule antagonists of the thyroid receptor (TR) signaling pathway - cell viability counter screen (AID 743064); details: GH3.TRE-Luc viability, CellTiter-Fluor, 24 h; activity change, negative = cytotoxic: at 70.3 µM (top of the series) unless noted; also: nearly all actives have a fitted effect of over 50% in size
Procedure, shortened: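 CellTiter-Fluor readout, 30 min at 37 °C/5% CO2, following 23.5 h incubation of GH3.TRE-Luc cells with test compound and 1 nM T3 (final).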

[4] = qHTS assay to identify small molecule antagonists of the androgen receptor (AR) signaling pathway using the MDA cell line - cell viability counter screen (AID 743041; also: nearly all actives have a fitted effect of over 45% in size; as to viability change, negative = cytotoxic: % is scaled to controls: 0 for no effect and ±100 for the full control effect); details: MDA-kb2 viability, CellTiter-Fluor, 16 h, cells co-treated with R1881 androgen agonist; viability change, negative = cytotoxic: at 70.3 µM (top of the series) unless noted
Procedure, shortened: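 Cells were plated at 3,000 per well and left 5 h. Compounds in DMSO were then pinned in, followed by R1881. After 16 h at 37C, CellTiter-Fluor fluorescence gave viability.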

[5] = biological target: Androgen receptor (Homo sapiens) (UniProt P10275); assay: qHTS assay to identify small molecule agonists of the androgen receptor (AR) signaling pathway (AID 743036; active = well fitted activation curve with a large enough effect in the signal ratio in the repeat runs, with a control signal flat, not every such curve was filed as active; inconclusive = weak or mixed curves, or effect the other way; inactive = no such curve, though single readings can be large or run the other way; the % refers to the signal ratio; as to activation: % is scaled to controls: 0 for no effect and ±100 for the full control effect); details: HEK293 AR-UAS-bla GripTite, beta-lactamase FRET ratio, 16 h; activation: at 62.4 µM (top of the series) unless noted
Procedure, shortened: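 Following a 4 h settling period, AR-UAS-bla HEK293 cells were dosed with compounds for 16 h at 37C. A 2 h room-temperature incubation with LiveBLAzer B/G FRET substrate preceded the fluorescence measurement.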

[6] = qHTS assay to identify small molecule antagonists of the androgen receptor (AR) signaling pathway - cell viability counter screen (AID 743033; also: nearly all actives have a fitted effect of over 45% in size); details: AR-bla HEK293 viability, CellTiter-Glo luminescence, 16 h; activity change, negative = cytotoxicity: at 58.5 µM (top of the series)
[7] = biological target: Androgen receptor (Homo sapiens) (UniProt P10275); assay: qHTS assay to identify small molecule antagonists of the androgen receptor (AR) signaling pathway (AID 743035; active = well fitted inhibition curve with a large enough effect in the signal ratio in the repeat runs, not every such curve was filed as active; inconclusive = weak or mixed curves, or effect the other way; inactive = no such curve, though single readings can be large or run the other way; the % refers to the signal ratio); details: HEK293 AR-UAS-bla, R1881-stimulated, beta-lactamase FRET, 16 h; activity change, negative = inhibition: at 58.5 µM (top of the series) unless noted
Procedure, shortened: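 HEK293 cells stably carrying UAS-beta-lactamase reporter, 2,000/well, given compounds plus R1881 agonist and incubated 16 h at 37C. LiveBLAzer B/G FRET substrate then added for 2 h at room temperature before fluorescence reading.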

[8] = biological target: Androgen receptor (Homo sapiens) (UniProt P10275); assay: qHTS assay to identify small molecule antagonists of the androgen receptor (AR) signaling pathway using the MDA cell line (AID 743042; also: nearly all actives have a fitted effect of over 55% in size); details: MDA-kb2 AR-luc, MMTV luciferase, R1881 antagonist, 16 h; series mostly up to 70.3 µM
Procedure, shortened: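 Antagonist mode: compounds plus R1881 agonist added to MDA-kb2 AR-luc cells, incubated 16 h at 37C. Luciferase reporter luminescence quantified, with multiplexed CellTiter-Fluor readout for cell viability.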
Potency is read from the fitted curve at half-maximal effect; tags tell the direction and shape of the fitted curve or compound fluorescence and quenching.

Chain of UniProt P10275 (P10275 whole entry, looked up): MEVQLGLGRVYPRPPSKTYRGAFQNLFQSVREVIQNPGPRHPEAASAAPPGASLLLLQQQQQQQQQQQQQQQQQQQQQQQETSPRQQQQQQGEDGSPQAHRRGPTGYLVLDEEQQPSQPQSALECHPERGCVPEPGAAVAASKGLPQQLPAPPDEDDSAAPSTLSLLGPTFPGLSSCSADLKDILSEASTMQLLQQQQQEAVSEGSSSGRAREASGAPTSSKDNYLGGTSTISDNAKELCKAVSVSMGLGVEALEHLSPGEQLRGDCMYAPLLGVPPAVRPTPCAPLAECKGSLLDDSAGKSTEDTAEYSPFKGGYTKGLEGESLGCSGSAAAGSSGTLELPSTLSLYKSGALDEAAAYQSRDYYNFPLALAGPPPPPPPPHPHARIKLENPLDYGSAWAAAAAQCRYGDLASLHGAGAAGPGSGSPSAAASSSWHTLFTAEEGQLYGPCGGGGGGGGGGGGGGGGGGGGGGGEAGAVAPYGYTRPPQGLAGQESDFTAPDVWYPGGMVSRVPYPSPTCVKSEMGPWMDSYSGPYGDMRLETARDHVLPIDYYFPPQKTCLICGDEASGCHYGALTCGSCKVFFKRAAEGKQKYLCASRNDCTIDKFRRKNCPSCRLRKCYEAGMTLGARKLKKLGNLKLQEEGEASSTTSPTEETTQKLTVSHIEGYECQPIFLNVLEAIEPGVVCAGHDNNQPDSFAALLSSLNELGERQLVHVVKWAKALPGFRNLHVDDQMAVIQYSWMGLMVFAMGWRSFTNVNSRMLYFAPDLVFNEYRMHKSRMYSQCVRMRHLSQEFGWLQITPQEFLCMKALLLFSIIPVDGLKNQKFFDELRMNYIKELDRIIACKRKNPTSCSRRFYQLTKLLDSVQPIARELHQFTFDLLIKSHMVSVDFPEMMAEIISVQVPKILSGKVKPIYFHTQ

Cc1c(C(N)=O)cc([N+](=O)[O-])cc1[N+](=O)[O-]
Potency [1]: inactive

CCNc1nc(N)nc(Cl)n1
Potency [2]: inactive
Potency [3]: inconclusive: 30.6 µM [rising, full curve, poor fit]

CC(=O)Oc1ccc2c(c1)CC[C@@H]1[C@@H]2CC[C@]2(C)[C@@H](O)CC[C@@H]12
Potency [2]: active: 26.6 µM
Potency [3]: active: 26.6 µM

CN(C/C=C/c1ccccc1)Cc1cccc2ccccc12
Potency [2]: inconclusive: 29.8 µM [cytotoxic, partial curve]
Potency [3]: inconclusive: 29.8 µM [cytotoxic]

CC(N)=O
Potency [2]: inactive
Potency [4]: inconclusive: 144 µM [rising, partial curve, poor fit]

Cc1cccc(Br)c1
Potency [1]: inactive

Cc1cccc([N+](=O)[O-])c1C
Potency [2]: inactive
Potency [5]: inactive

CCCCCCCCOc1ccccc1C(=O)Nc1ccc(C(=O)OCC[N+](C)(CC)CC)cc1
Potency [2]: active: 23.7 µM
Potency [3]: active: 26.6 µM

Nc1ccc(S(=O)(=O)NCc2ccccc2)cc1
Potency [2]: inconclusive: 21.1 µM [rising, partial curve, poor fit]
Potency [4]: inconclusive: 5.96 µM [rising, partial curve, poor fit]

CCN1CCC[C@H]1CNC(=O)c1c(O)c(Cl)cc(Cl)c1OC
Potency [2]: inactive
Potency [4]: inactive

CCN[C@H]1CN(CCCOC)S(=O)(=O)c2sc(S(N)(=O)=O)cc21
Potency [1]: inactive

CC(=O)CC(c1ccccc1)c1c(O)c2ccccc2oc1=O (stereo not drawn)
Potency [1]: inactive

CCN(CC)CCOc1ccc(C(O)(Cc2ccc(Cl)cc2)c2ccc(C)cc2)cc1 (stereo not drawn)
Potency [2]: active: 2.11 µM
Potency [3]: active: 7.5 µM

O=C(O)CCc1nc(-c2ccccc2)c(-c2ccccc2)o1
Potency [2]: inactive
Potency [3]: inconclusive: 0.841 µM [rising, full curve]

CC(CO)CO
Potency [2]: inactive
Potency [3]: inactive

CC/C=C1/OC(=O)c2ccccc21
Potency [2]: inconclusive: 67 µM
Potency [3]: inactive

CO[C@H]1C=CO[C@@]2(C)Oc3c(C)c(O)c4c(O)c(cc(O)c4c3C2=O)NC(=O)/C(C)=C\C=C/[C@H](C)[C@H](O)[C@@H](C)[C@@H](O)[C@@H](C)[C@H](OC(C)=O)[C@@H]1C
Potency [1]: active: 12.3 µM

C=C(C)C1CC=C(C)C(OC(C)=O)C1 (stereo not drawn)
Potency [1]: inconclusive: 17.2 µM [cytotoxic, partial curve, poor fit]

N[C@@H](Cc1cc(I)c(Oc2cc(I)c(O)c(I)c2)c(I)c1)C(=O)O
Potency [1]: inconclusive: 33.5 µM [cytotoxic, single point]

CCOC(=O)c1ccc(C#Cc2ccc3c(c2)C(C)(C)CCS3)nc1
Potency [2]: active: 29.8 µM
Potency [3]: inactive

COC(=O)C(C)Oc1ccc(Oc2ncc(C(F)(F)F)cc2Cl)cc1 (stereo not drawn)
Potency [2]: inconclusive: 69.5 µM [cytotoxic, single point]
Potency [3]: inconclusive: 31 µM [rising, partial curve, poor fit]

Cc1cc(C)c(NC(=O)CN(CC(=O)O)CC(=O)O)c(C)c1Br
Potency [2]: inactive
Potency [3]: inactive

CC(C)(O)c1ccc(CNC(=O)c2cccnc2Oc2ccc3nonc3c2)cc1
Potency [6]: inconclusive: 54.9 µM [cytotoxic, single point]

CCCCC1C(=O)N(c2ccccc2)N(c2ccc(O)cc2)C1=O (stereo not drawn)
Potency [6]: inconclusive: 11.5 µM [cytotoxic]
Potency [7]: inconclusive: 11.5 µM
Potency [5]: inconclusive: 9.1 µM [activator]
Potency [8]: active: 12.7 µM

O=c1[nH]ncc2ccccc12
Potency [6]: inconclusive: 21.5 µM [cytotoxic, single point]

CCCCOC(=O)C(C)CC (stereo not drawn)
Potency [6]: active: 43.6 µM

O=C(Nc1ncc([N+](=O)[O-])s1)c1cccs1
Potency [6]: inconclusive: 8.49 µM [cytotoxic, full curve]
Potency [7]: inconclusive: 9.52 µM [rising, partial curve, poor fit]
Potency [5]: inconclusive: 5.35 µM [rising, partial curve, poor fit]
Potency [3]: inconclusive: 33.5 µM [cytotoxic, single point]

c1cc(OCC2CO2)cc(OCC2CO2)c1 (stereo not drawn)
Potency [6]: inconclusive: 24.4 µM [cytotoxic, full curve]
Potency [7]: inconclusive: 17.2 µM [rising, full curve, poor fit]
activation [5]: inconclusive: -25.8%
Potency [8]: inconclusive: 76.3 µM [inhibitor, partial curve, poor fit]
Potency [3]: active: 19.2 µM
